This is one part of the list.
Tested on: PfSIP2 AP2 domain 1 (GST-tagged)
Test: gcPBM binding intensity (ln(normalized median fluorescence intensity)); higher = stronger DNA binding
In short: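 For binding intensity, the highest Masliner-normalised natural-log median intensity across replicate spots of either probe orientation was taken. Protein bound to the array was stained with Alexa488 anti-GST antibody and scanned at 488 nm. The protein, GST-tagged P. falciparum DNA-binding domains from E. coli at about 25 μg on average, had been applied for 1 h to an Agilent 4 × 180k array of primer-extended double-stranded 36-bp intergenic genomic probes and negative controls.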

Sequence	gcPBM binding intensity (ln)
TATTTTTATTTATAACGTACGAAAAATGTATATAAT [XGTACX_site703]	7.53
GGTGTATGTTAAAGGAGTACATATATATATATATAT [XGTACX_site7727]	9.25
CATACACATTTCATATGTACATAGATTGAAGGGAAG [XGTACX_site116]	7.21
TTTTATATATAATTCACACAAAAAAGATACATAAGA [CACACA_site5332]	7.15
TAAGCAAAAATAATTACACACAAATTTATAAAAAAT [CACACA_site3377]	6.87
ATAAAAATATAATTGAGTACATATGAATAGTCCTAT [XGTACX_site6281]	7.04
ATTTTGTTTTTTTTTGCACACCATAAGGAGTGTAGG [CACACA_site1414]	7.4
ACAACACATATTCATCGTACATGTATTAGGAAGACA [XGTACX_site1859]	7.1
TATATAAAAATATGTTGTACGCATTTATAAATATAT [XGTACX_site3758]	7.32
ATTTTTTTTTTTTTTTTTTTTTTTTTTGAATTCACA [CACACA_negctrl_site982]	6.82
AATAGTTCTTGAACGTGTACATAAAATATAATTTAC [XGTACX_site11]	6.99
TTCTATTTTTTAAAAGTGCATATTATAAATATATAT	9.04
GAATAATCCAAACACACACACACACCCGAATAAATA [CACACA_site482]	7.03
GAAATCTAAATAGAAACACACATATATAAATAAATA [CACACA_site7762]	6.78
TAGTATTTATATGTTATATATATAAAATAATACAGT [XGTACX_negctrl_site571]	7.11
ATATCTAATAAAAATACACACACATATGATTTGTGA [CACACA_site8558]	6.72
TATATAGAATTATATGCATGTTCAAAAAAATACAAC [TGCATGCA_site431]	7.3
ATATAAATATATATATGTACATAATATATTATGTTT [XGTACX_site2806]	7.18
AATTTAACCACTAAAAGTACACACATATATACATAT [XGTACX_site8352]	7.19
GGACACCTTCAAAACACACATACAAATAAATAGAAA [CACACA_site3305]	7.22
AGGATAATATACAAAAGTACATAAAACTAAAAAAAC [XGTACX_site605]	7.23
AACATATATTTTGAAACACACACATATATAATATAC [CACACA_site8301]	7.11

Sequence	gcPBM binding intensity (ln)
AAAGAAAGAAAGAATACACACACACCGATATATATA [CACACA_site9246]	7.52
AATGTGTATATATATACACACACATATATATATTTT [CACACA_site8596]	7.04
TCCTTTTTACTACTAGTGCATTATTTACAAGGTCCG [GTGCAC_site9441]	9.21
ATATATATAAAATATTATATTAAAAAAAATAAAATA [GTGCAC_negctrl_site87]	7.06
TAGTTTTTTATATATTGTACTTAGAATATATTATAT [XGTACX_site3662]	6.94
ACAAAGTTATAATTCTTGCACTTTAAGGTTCATTTA	7.2
CGTGAATATATGATATGTACTTATAAAAATTTGTGC [XGTACX_site5480]	7.21
ATAAATATCTAGGGTTCACACATTATATATCTGTAT [CACACA_site5702]	6.77
GGTATACACAAGTATACACACATATATATATATATA [CACACA_site9063]	9.58
TTTTCCTCTTAAAATATACACACTGATTTAAGAAAA [CACACA_site3301]	7.05
TTTTTTTTTTTTTTTTTTTTTTTTTTGTTCAGGCCT [GTGCAC_negctrl_site143]	6.78
ACGTAATAAAATAGTTGTACAACTTTTTATAATATA [XGTACX_site4393]	7.53
TCATAAATATGAAAAAGTACAAAGGTAGATTTTGAA [XGTACX_site4535]	6.82
TATATATATATTATATGTACGTATGTATGTATATAT [XGTACX_site6451]	8.3
AAACGATTAATGTGTACACACATAGTTATAAACCTA [CACACA_site2110]	7.41
TTTTTCTTTTTTTCTTTTTTTATAAAACTTAATTGT [CACACA_negctrl_site384]	6.74
AAAAAAAAAAAAAAATATATATATATATACATACAT [CACACA_negctrl_site317]	7.53
TATTAATTATATTTATGTACATAATCATATTATTAT [XGTACX_site7938]	6.88
TTCATTTTTTGCTTTCAACACACATACAATATATAT [CACACA_site9369]	7.26
AGTAACAAAAGAAAAAAATATGCAAACATATATATA [XGTACX_negctrl_site468]	6.99
AGAAATATATATATATATATATATATATATATATAT [TGCATGCA_negctrl_site375]	9.39
TTTACAACATCAAAATGTACGCATTATTATTATTAA [XGTACX_site3017]	6.87

Sequence	gcPBM binding intensity (ln)
AAAAAAAAAAAACACACACACACACCCACCCATACA [CACACA_site2859]	7.08
TATTTAAAAAATAATACACACATAATATAACAAAAT [CACACA_site3174]	7.19
TGTGTATAAATATACACACACATATAAATATTTTAA [CACACA_site7005]	6.79
ACATATAATATAAATTGTACATATAAATATATTATT [XGTACX_site4268]	7.02
TCATATATTTTATACATACACACATATATATATTTT [CACACA_site3941]	7.15
ACGTTATACACAGTACGTACATAACTATCTAAATGT [XGTACX_site5068]	7.18
TGGAGGTCAGTTCACAGTACCCAGGAAATCTGCGGA [XGTACX_site2556]	6.18
ATGCATAATATACTCTTACACACCATTTCTATATAC [CACACA_site1461]	7.07
TATAACATAGGACACACACACATACATACACAAAAA [CACACA_site5062]	7.39
CGAACACAAACACAAACACACATCATATATATATAT [CACACA_site4857]	9.34
ATTTTGGAAATAATATGTACATATACATAATATATA [XGTACX_site4177]	6.86
AATATACAAAAAAAAAAAAAAAAAAAAAAGATGGAA [TGCATGCA_negctrl_site550]	6.92
TTTATTATATTTTTTTGTACATATTGATGTATATAA [XGTACX_site6527]	7.04
GCAAATCTTATATGAAGTACATATCTTATAAATAAA [XGTACX_site6903]	7.12
AGCAAAATGAAATAAATTGGAAAATATTACTGAACG [CACACA_negctrl_site1433]	6.91
AACAAAGGATTTATATATACATACATACATACATAA [GTGCAC_negctrl_site469]	6.96
ATAAAAAAAAAAAGAAGTACATGTATTAAAATTTAT [XGTACX_site3927]	6.96
TGAATTTACAAAATCATGCACTTAATTACAGAATAA	8.01
GGTACATACAGACACACACACAAAAAAAAAAAAATA [CACACA_site6844]	7.17
AAAAGTCTTCAAATTTGTACATATATATATATATAT [XGTACX_site3404]	9.58
TTAATATTAATTATATGTACATATAATATATATATA [XGTACX_site1757]	8.51
ATCTTTTCATATTGCTGTACAAATTATTTTCATTCG [XGTACX_site492]	7.4

Sequence	gcPBM binding intensity (ln)
GAGAAATGGAGACACACACACATATTATATATATAT [CACACA_site1532]	8.66
TGTATAAAATTCCATTGTACATATTATTTTACGACA [XGTACX_site7764]	6.97
ATGTTAAACAAATCTATACACACGTATATGACAAAA [CACACA_site1783]	7.01
GTATACATGCAAATTTTTATTTACAACCCCAAAAAG [XGTACX_negctrl_site255]	7.27
TTTTCATAATATACATGTACATATATAAATTATTAA [XGTACX_site5206]	7.1
TTTTTTTCACAAAATACACACAATATATTTTATATC [CACACA_site1138]	6.83
TATTATAATATGCCTTGTACATATAACAAATTTATT [XGTACX_site108]	7.07
ATGAACAAGTGGCACACACACATTATAACTAATTTA [CACACA_site5731]	7.19
TTTATTTATTACTAAAGTACTAAATCATATTATTAT [XGTACX_site2574]	6.7
TTCTTTTTTTTTATCACACATATTACAATCTAGTGC [CACACA_site4697]	7.31
AAAATAATATTTCCTTGTACACATATGTATTTGTTC [XGTACX_site4430]	7.17
TTTTGGATTGAGGACCTTTTTATAGAATTATGTTTT [TGCATGCA_negctrl_site544]	6.75
ATATATAATTTTTACACACGCAATAAATATATATAT [CACACA_site4283]	8.4
ATGTTATAAGATTTATGTACACACATATACACACCT [XGTACX_site1316]	7.24
GTTTCCTTAATATTCACACACATATATATAATATAT [CACACA_site1856]	7.55
TTAACATAAATATATACACACCAATGATGGCATTTA [CACACA_site4952]	6.85
TATATATAATATATATGTACGTATATATATAATATA [XGTACX_site8383]	7.37
AATAAAGCAATAAATACACACATATTTATATTTATA [CACACA_site7390]	6.93
AAGGGAAAATAATAAAAGAAAAAGAAAAAAAAAAAA [CACACA_negctrl_site1518]	6.74
TAATGGAGAAAAAAAAAACACACGGTACATTCAAAG [CACACA_site3117]	7
TATATATATATATATTGTACTTTATATGTTCTTATA [XGTACX_site7545]	9.49
AAATATTACATTTGTTAAATAATATGTTATACATAA [XGTACX_negctrl_site484]	6.96
